Data published in PubChem BioAssay AID504466 (National Center for Advancing Translational Sciences (NCATS), 2011).
The whole screen tested about 330,000 compounds, of which about 4,200 (1.3%) were called active. The inconclusive results got no clear call from the source; some entries with a clear call stand among them for comparison. Calls follow the shape of the dose curve; as a rule, active = well fitted activation curve with a large enough effect; inconclusive = small, poorly fitted or top-dose-only effect; inactive = no such curve, though single readings can be large or run the other way. A potency beside an inconclusive call is a rough fit, not a confirmed value.
Potency is read from the fitted curve at half-maximal effect; tags tell the direction and shape of the fitted curve.

Assay: qHTS screen for small molecules that induce genotoxicity in human embryonic kidney (HEK293T) cells expressing luciferase-tagged ELG1; also: nearly all actives have a fitted effect of over 60% in size; as to activity change, positive = activation: % of control where 0% means no effect
Settings: HEK293T ELG1-luciferase reporter, luminescence, 16 h; series mostly up to 46 µM; activity change, positive = activation: at the top concentration
How it was run: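 HEK293T cells expressing luciferase-tagged ELG1 were exposed to compound or DMSO vehicle for 16 hr at 37 °C and 5% CO2. Luciferase activity was then measured with ONE-Glo after 30 min at room temperature.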
For `Cc1ccc(-n2sc3ccccc3c2=O)cc1`, the Potency was inconclusive: 23.1 µM [activator, partial curve, poor fit]. For `CSc1cccc(CNC(=O)C2CCC(=O)N(Cc3cccc(C(F)(F)F)c3)C2)c1` (stereo unspecified), the Potency was inconclusive: 13 µM [activator, partial curve, poor fit]. In the case of `CN1C(=O)C(=Cc2ccc(N3CCOCC3)o2)C(=O)N(C)C1=S`, the Potency is reported as inconclusive: 20.6 µM [activator, partial curve, poor fit]. In the case of `O=C1C(=O)c2cccc3cccc1c23`, the Potency is reported as inconclusive: 20.6 µM [activator, partial curve, poor fit]. In the case of `Cc1ccc(/C=C2\C(=O)NC(=O)N(CCc3ccc(F)cc3)C2=O)o1`, the Potency is reported as inconclusive: 18.4 µM [activator, partial curve, poor fit]. In the case of `CN1C(=O)N(C)C(=O)C2(Cc3c(nc4ccccn4c3=O)N3CCC(Cc4ccccc4)CC32)C1=O` (stereo unspecified), the “activity change, positive = activation” value is reported as inactive: -0.7%. For `CCN(CC)c1ccc(C=C2C(=O)N(C)C(=S)N(C)C2=O)o1`, the Potency was inconclusive: 18.4 µM [activator, partial curve, poor fit]. In the case of `Cc1cccc(OCCn2c(=O)oc3ccc(C)cc32)c1`, the Potency is reported as inconclusive: 16.4 µM [activator, partial curve, poor fit]. For `O=C(C1CCN(c2nc3ccc(Br)cc3s2)CC1)N1CCC2(CC1)OCCO2`, the Potency was inconclusive: 18.4 µM [activator, single point]. With `CCCCCCOc1ccc(CN2CCN(CCO)CC2)cc1` the Potency was active: 8.2 µM. With `CCN(CC)C(=O)c1ccc(NC(=O)c2cccc(F)c2)cc1` the Potency was inconclusive: 12.6 µM [activator, single point]. For `Nc1c2c(nc3sc4c(c13)CCCC4)CCCCC2`, the “activity change, positive = activation” value was inactive: 13.9%. In the case of `O=C(O)c1cc[c]([Hg][Cl])cc1`, the “activity change, positive = activation” value is reported as inactive: -2.1%. For `COc1ccc2cc1Oc1ccc(cc1)C[C@H]1c3cc(c(OC)cc3CCN1C)Oc1c(OC)c(OC)cc3c1[C@H](C2)N(C)CC3`, the Potency was inconclusive: 16.4 µM [activator, partial curve, poor fit]. For `Cc1ccc(N(C)C(=O)Oc2ccc(C(=O)c3ccc(Cl)cc3)cc2)cc1`, the Potency was inconclusive: 29.1 µM [activator, single point]. With `O=c1[nH]c(O)c(N=Nc2ccc3c(c2)OCCO3)c(=O)[nH]1` the Potency was inconclusive: 0.366 µM [activator, full curve, poor fit]. For `CCN1C(=O)N(CC)C(=O)C2(Cc3ccccc3N3CCN(c4ccccc4)CC32)C1=O` (stereo unspecified), the Potency was inconclusive: 29.1 µM [activator, partial curve, poor fit]. For `COc1cccc(C2=NOC(C(=O)N3CCC4(CC3)OCCO4)C2)c1` (stereo unspecified), the Potency was inconclusive: 13 µM [activator, partial curve, poor fit]. For `O=C(C1CC(c2ccc(F)cc2)=NO1)N1CCC2(CC1)OCCO2` (stereo unspecified), the Potency was active: 20.6 µM. With `COc1ccc2c(c1)NP(=S)(Oc1ccccc1)N2` (stereo unspecified) the Potency was inconclusive: 20.6 µM [activator, single point]. For `CCCCCn1c(=O)c(C(=O)Nc2ccccc2Cl)c(O)c2ccccc21`, the Potency was inconclusive: 20.6 µM [activator, single point]. With `O=C(O)c1cc2ccccc2oc1=O` the Potency was inconclusive: 18.4 µM [activator, partial curve]. In the case of `Cc1ccccc1N1C(=O)NC(=O)/C(=C\c2cc(Br)c(N3CCOCC3)o2)C1=O`, the Potency is reported as inconclusive: 29.1 µM [activator, partial curve, poor fit]. In the case of `O=c1[nH]c(=S)[nH]c(O)c1N=Nc1ccc(S(=O)(=O)N2CCOCC2)cc1`, the “activity change, positive = activation” value is reported as inactive: 3.13%. In the case of `Nc1ncnc2c1ncn2[C@@H]1O[C@H](COP(=O)(O)OP(=O)(O)OP(=O)(O)O)[C@@H](O)[C@H]1O`, the Potency is reported as inconclusive: 9.2 µM [activator, partial curve]. In the case of `CCc1ccc(N2C(=O)NC(=O)/C(=C/c3cccn3CCOc3ccc(C(C)CC)cc3)C2=O)cc1` (stereo unspecified), the Potency is reported as inconclusive: 9.2 µM [activator, partial curve]. With `CN(C)C(CNC(=O)Cc1ccc(Br)cc1)c1ccccc1` (stereo unspecified) the “activity change, positive = activation” value was inactive: 3.6%. In the case of `Oc1cc(O)cc(/C=C/c2ccc(O)cc2O)c1`, the Potency is reported as inconclusive: 32.6 µM [activator, partial curve, poor fit]. In the case of `Nc1ccc2c(c1)oc1ccccc12`, the Potency is reported as inconclusive: 16.4 µM [activator, partial curve, poor fit]. In the case of `O=C1N=C(N2CCCCC2)SC1=C1CCCCC1`, the Potency is reported as active: 16.4 µM. With `CN1C(=O)C(=Cc2ccc(N3CCCCCC3)cc2)C(=O)N(C)C1=O` the “activity change, positive = activation” value was inactive: -0.128%. For `CC(C)c1oc(=O)cc2c1[C@@H](O)[C@H]1OC(=O)[C@@]3(C)CC[C@@H](O)[C@@]2(C)C13` (stereo partly specified), the Potency was inconclusive: 5.8 µM [activator, single point]. In the case of `Cc1nn(-c2ccccc2)c(Cl)c1C1C(C#N)=C(N)Oc2c1c(=O)oc1ccccc21` (stereo unspecified), the Potency is reported as inconclusive: 13 µM [activator, partial curve, poor fit]. In the case of `COC(=O)C(O)(c1ccc(NC(=O)NC2CCCCC2)cc1)C(F)(F)F` (stereo unspecified), the Potency is reported as inconclusive: 14.6 µM [activator, partial curve, poor fit]. In the case of `COc1ccc(-n2nc(C(=O)NCC(=O)N3CCC4(CC3)OCCO4)c3ccccc3c2=O)c(OC)c1`, the Potency is reported as inconclusive: 11.6 µM [activator, partial curve]. For `C=C(C)CSc1nc2ncc(Cl)cc2[nH]1`, the Potency was inconclusive: 16.4 µM [activator, partial curve, poor fit]. For `COc1ccc(-c2nc3ccccc3c(=O)o2)cc1`, the Potency was inconclusive: 16.4 µM [activator, partial curve, poor fit]. In the case of `COc1cc2[nH]c(C(=O)N3CCC4(CC3)OCCO4)cc2c(OC)c1OC`, the Potency is reported as inconclusive: 25.9 µM [activator, partial curve, poor fit]. For `COc1ccc(N2C(=O)/C(=C/c3cc(C)n(-c4ccc(C)cn4)c3C)C(=O)NC2=S)c(OC)c1`, the “activity change, positive = activation” value was inactive: 13%. In the case of `CC(=O)O[C@H]1C[C@@H]2CC[C@@H]3[C@H](CC[C@]4(C)C(=O)CC[C@@H]34)[C@@]2(C)C[C@@H]1OC(C)=O`, the Potency is reported as inconclusive: 20.6 µM [activator, single point]. For `O=C1NC(=O)N(CCC2=CCCCC2)C(=O)/C1=C\c1cccs1`, the Potency was inconclusive: 29.1 µM [activator, partial curve, poor fit]. With `COc1ccccc1N1C(=O)NC(=O)/C(=C\c2cnn(-c3ccccc3)c2)C1=O` the Potency was inconclusive: 32.6 µM [activator, partial curve, poor fit]. With `CN(C)CCc1nc2ccccc2c(=O)n1-c1ccccc1` the Potency was inconclusive: 29.1 µM [activator, partial curve, poor fit]. In the case of `O=[N+]([O-])c1ccccc1CNCCc1ccc(F)cc1`, the Potency is reported as inconclusive: 25.9 µM [activator, single point]. With `Cn1nccc1C(=O)N1CCC2(CC1)OCCO2` the “activity change, positive = activation” value was inactive: 3.04%. For `O=C1C2C3CCC(C3)C2C(=O)N1c1ccc(OS(=O)(=O)c2ccccc2)cc1` (stereo unspecified), the Potency was inconclusive: 3.66 µM [activator, partial curve]. For `CN1C(=O)/C(=C\c2ccc(N3CCCCC3)o2)C(=O)NC1=S`, the Potency was active: 5.8 µM. For `O=C(NNc1c(F)c(F)cc(F)c1F)c1cc2ccccc2oc1=O`, the Potency was inconclusive: 14.6 µM [activator, partial curve]. In the case of `COC(=O)C(O)(c1ccc(N(C)S(=O)(=O)c2ccccc2)cc1)C(F)(F)F` (stereo unspecified), the Potency is reported as inconclusive: 25.9 µM [activator, partial curve, poor fit]. In the case of `Cc1c(C(=O)N2CCOCC2)sc2nc(-c3ccccc3)cn12`, the Potency is reported as inconclusive: 14.1 µM [activator, partial curve, poor fit]. In the case of `COc1cc(C(C)=O)ccc1OCc1cc(C(=O)N(C)CCC2CCCCO2)no1` (stereo unspecified), the Potency is reported as inconclusive: 2.91 µM [activator, partial curve, poor fit]. For `Cc1nc2cc(C(F)(F)F)ccc2n1C1CCN(Cc2nnnn2Cc2cccs2)CC1`, the “activity change, positive = activation” value was inactive: -6%. For `CC(C)(C)C(=O)c1cn(CC(=O)NCc2ccco2)c2ccccc12`, the Potency was inconclusive: 13 µM [activator, partial curve, poor fit]. For `O=C(O)C1C2CCC(O2)C1C(=O)Nc1ccc(Cl)cc1` (stereo unspecified), the Potency was inconclusive: 18.3 µM [activator, single point]. With `Cc1ccc(N=Cc2c(O)n(C)c(=O)n(C)c2=O)cc1` the “activity change, positive = activation” value was inactive: 2%. In the case of `c1ccc(CN2CCc3nc4ccccc4cc3C2)cc1`, the Potency is reported as inconclusive: 20.6 µM [activator, single point]. With `Nc1ccccc1C(=O)OCCc1ccccc1` the Potency was inconclusive: 2.91 µM [activator, partial curve]. For `O=c1cc(-c2ccc(O)c(O)c2)oc2cc(O)cc(O)c12`, the Potency was inconclusive: 7.3 µM [activator, partial curve, poor fit]. For `O=C(O)c1[nH]c(=O)[nH]c(=O)c1F`, the Potency was inconclusive: 16.4 µM [activator, partial curve, poor fit]. For `Cn1c(=O)cc(OCCCC(=O)N2CCC3(CC2)OCCO3)c2ccccc21`, the Potency was inconclusive: 20.6 µM [activator, partial curve, poor fit]. With `COc1ccc(C2CC(c3cccs3)=NN2c2nc(C)c(C(C)=O)s2)cc1OC` (stereo unspecified) the Potency was active: 20.6 µM. For `Cc1ccc(C(=O)c2cc(Br)ccc2N)cc1`, the Potency was inconclusive: 20.6 µM [activator, partial curve, poor fit]. In the case of `O=C(Cc1ccc([N+](=O)[O-])cc1)N1CCN(Cc2ccc3c(c2)OCO3)CC1`, the “activity change, positive = activation” value is reported as inactive: -10.7%. In the case of `CCN1C(=O)C(=Cc2ccc(C)s2)C(=O)N(CC)C1=S`, the Potency is reported as inconclusive: 20.6 µM [activator, single point]. With `CCOC(=O)C1CCCN(C(=O)c2ccc3oc(Cc4ccccc4)nc3c2)C1` (stereo unspecified) the Potency was inconclusive: 7.3 µM [activator, partial curve]. In the case of `CN(C)c1ccc(C(=O)c2ccc(N(C)C)cc2)cc1`, the Potency is reported as active: 23.1 µM.
